Assay results reported in the supplement of paper PMC7826260.
Some of the results follow. Cleavage of a single-stranded DNA pool by Rep nickase domains was read by sequencing at 3 µM enzyme and 37 °C for 1 h; the strands have 90 letters, of which the middle is given. A value is the log2 ratio of uncut reads to the pool without enzyme; strong cutting gives strongly negative numbers. There is no active / inactive call. The scaling is to total reads, so uncut sequences can rise above 0 when many others are cut.

Columns and labels:
Test in all cases: uncleaved DNA left, log2 of reads against the no-enzyme library (log2 ratio); higher = less cleavage (more negative = more Rep cleavage of the k-mer); sequences stand for … in CTCGTCCG…ACCGGAGA
[1] = test system: T1, Rep nickase domain of Muscovy duck circovirus
T1 sequence (residues 1-111 of Rep, tag left off): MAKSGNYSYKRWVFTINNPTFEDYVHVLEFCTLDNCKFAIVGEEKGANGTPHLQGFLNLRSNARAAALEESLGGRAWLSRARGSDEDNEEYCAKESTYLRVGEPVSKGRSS
Method: (§1)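 A pool of 90-nt single-stranded DNAs with seven random bases just before the constant AC of the nick site (name = the seven bases) was cut by 3 µM recombinant His6-SUMO-tagged Rep nickase domain (300 nM DNA, 50 mM HEPES pH 8.0, 50 mM NaCl, 1 mM MnCl2, 1 h, 37 °C, three replicates). Uncut DNA was amplified and sequenced.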

[2] = test system: T2, Rep nickase domain of banana bunchy top virus
T2 sequence (residues 1-94 of Rep, tag left off): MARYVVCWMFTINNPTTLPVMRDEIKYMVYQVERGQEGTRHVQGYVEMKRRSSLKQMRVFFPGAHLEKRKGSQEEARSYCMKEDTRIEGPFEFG
Method: as §1

[3] = test system: T3, Rep nickase domain of cabbage leaf curl virus
T3 sequence (residues 1-116 of Rep, tag left off): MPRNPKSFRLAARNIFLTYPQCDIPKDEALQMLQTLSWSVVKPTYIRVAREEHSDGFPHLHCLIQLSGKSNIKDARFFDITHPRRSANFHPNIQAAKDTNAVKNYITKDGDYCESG
Method: as §1

[4] = test system: T4, Rep nickase domain of chickpea chlorotic dwarf virus
T4 sequence (residues 1-124 of Rep, tag left off): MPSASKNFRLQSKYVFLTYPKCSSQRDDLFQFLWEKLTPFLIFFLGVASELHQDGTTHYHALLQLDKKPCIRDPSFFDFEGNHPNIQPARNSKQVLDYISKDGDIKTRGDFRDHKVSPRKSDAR
Method: as §1

[5] = test system: T5, Rep nickase domain of faba bean necrotic yellows virus
T5 sequence (residues 1-98 of Rep, tag left off): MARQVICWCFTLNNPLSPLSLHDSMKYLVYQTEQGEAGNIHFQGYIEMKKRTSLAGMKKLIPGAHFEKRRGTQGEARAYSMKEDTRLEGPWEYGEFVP
Method: as §1

[6] = test system: T6, Rep nickase domain of maize striate mosaic virus
T6 sequence (residues 1-117 of Rep, tag left off): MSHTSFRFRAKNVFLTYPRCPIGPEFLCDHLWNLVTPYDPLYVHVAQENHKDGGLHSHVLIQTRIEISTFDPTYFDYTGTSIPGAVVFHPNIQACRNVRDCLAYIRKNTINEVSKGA
Method: as §1

[7] = test system: T7, Rep nickase domain of porcine circovirus 2
T7 sequence (residues 2-116 of Rep, tag left off): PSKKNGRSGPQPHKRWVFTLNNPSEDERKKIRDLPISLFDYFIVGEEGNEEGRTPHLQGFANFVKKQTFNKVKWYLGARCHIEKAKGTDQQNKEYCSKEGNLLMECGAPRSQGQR
Method: as §1

[8] = test system: T8, Rep nickase domain of tomato yellow leaf curl virus
T8 sequence (residues 1-136 of Rep, tag left off): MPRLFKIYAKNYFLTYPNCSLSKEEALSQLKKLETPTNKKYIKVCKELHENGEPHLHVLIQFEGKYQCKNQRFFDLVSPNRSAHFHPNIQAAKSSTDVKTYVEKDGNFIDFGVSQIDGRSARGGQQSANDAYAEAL
Method: as §1

[9] = test system: T9, Rep nickase domain of wheat dwarf virus
T9 sequence (residues 1-137 of Rep, tag left off): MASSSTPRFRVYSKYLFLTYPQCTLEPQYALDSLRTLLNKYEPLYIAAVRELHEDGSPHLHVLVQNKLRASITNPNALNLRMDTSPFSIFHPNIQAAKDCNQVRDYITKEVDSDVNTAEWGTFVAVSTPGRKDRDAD
Method: as §1

Sequence	uncleaved DNA left (log2) [1]	uncleaved DNA left (log2) [2]	uncleaved DNA left (log2) [3]	uncleaved DNA left (log2) [4]	uncleaved DNA left (log2) [5]	uncleaved DNA left (log2) [6]	uncleaved DNA left (log2) [7]	uncleaved DNA left (log2) [8]	uncleaved DNA left (log2) [9]
CGTATTT	0.111	-0.0245	0.0589	-1.69	-0.0806	-0.0559	-1.27	0.0907	0.0499
GGAAGAT	0.0986	0.145	0.883	1.95	0.134	2.18	0.185	0.0677	0.287
TGCTCGC	0.143	0.165	0.238	0.471	0.0764	0.664	0.063	0.136	0.113
TCGCCAA	0.156	0.173	-0.121	-0.0918	-0.0576	-0.4	0.118	0.15	0.0456
ATTGCGC	0.0322	-0.0106	0.087	1	0.0886	1.23	0.0905	0.0321	-0.092
TAGATAA	0.143	0.0503	-0.0306	-0.592	0.0946	-0.208	-0.675	0.0259	0.136
GCTATGA	0.0937	0.0753	0.0758	0.537	-0.0983	0.114	0.0643	0.0486	-0.0105
CAGCCCA	0.0517	-0.0702	-0.141	-2.01	-0.027	-0.324	-0.713	-0.0476	-0.135
TGTGTTT	0.0133	-0.0973	0.197	-1.03	-0.022	0.485	-0.421	-0.0971	-0.106
AAGAATC	0.0403	0.0217	0.228	0.211	0.178	0.162	0.0121	0.0156	0.098
GTTGGAC	-0.0397	0.0642	0.852	1.94	0.0874	2.17	0.214	0.157	0.144
CTTCCGC	0.0146	0.0227	-0.366	-0.721	-0.00194	-0.931	0.00836	0.0498	-0.0619
ATAGAGT	0.172	-0.00351	-0.122	0.133	0.00643	-0.321	0.0538	-0.106	-0.0518
TAGTTAG	0.0466	-0.0864	-0.776	-0.778	0.0651	-1.29	-0.376	-0.0569	-0.204
AGGCCCA	0.052	0.0739	0.392	0.703	0.0301	1.91	0.0677	-0.0411	-0.0391
TGCTCTC	-0.0275	-0.142	0.209	0.164	-0.107	0.497	-0.121	-0.174	-0.15
CGGTTAT	0.0795	-0.0507	0.267	0.458	-0.0308	0.773	-0.976	-0.0294	-0.0338
ATCCTAC	-0.175	-0.107	-0.394	-2.24	-0.0285	-0.93	-0.139	-0.184	0.00207
GCACGAT	0.0665	0.00388	0.00787	-0.23	0.044	-0.0502	0.204	0.0863	-0.0686
CTGAGCG	-0.0393	-0.0593	-0.873	-0.248	-0.0227	-1.18	0.119	0.0108	-0.181

Sequence	uncleaved DNA left (log2) [1]	uncleaved DNA left (log2) [2]	uncleaved DNA left (log2) [3]	uncleaved DNA left (log2) [4]	uncleaved DNA left (log2) [5]	uncleaved DNA left (log2) [6]	uncleaved DNA left (log2) [7]	uncleaved DNA left (log2) [8]	uncleaved DNA left (log2) [9]
TAAGCGA	0.0398	-0.13	-0.722	-0.539	0.0367	-0.981	0.112	-0.00472	-0.143
CAACGCA	0.133	0.11	-0.237	-0.694	0.0676	-0.653	-0.0105	0.0158	-0.0123
GTGTAGA	0.168	0.148	0.387	0.852	0.0521	1.28	0.203	0.23	0.192
TCACCGT	-0.0593	0.025	-0.267	-0.95	-0.0307	-1.02	-0.117	0.0154	-0.197
CTTAGCA	-0.0305	-0.0608	0.0316	-0.115	0.096	-0.869	-0.167	0.017	0.0697
AGAGGAC	0.0726	0.135	0.448	1.5	0.0809	1.65	0.233	0.00533	0.149
GAATGCG	0.0322	-0.0351	-0.00238	1.17	0.0469	0.926	0.0924	-0.00773	-0.0425
CTCCCCC	-0.141	-0.135	0.146	-0.0727	-0.0223	-0.00185	-0.263	-0.0744	0.0611
GAGATCC	0.0241	-0.0172	0.333	0.826	-0.0316	1.24	0.00863	0.0652	0.088
GGAATGC	-0.015	0.115	0.417	1.07	0.0703	0.772	0.243	0.113	0.108
TTAAACG	0.0199	-0.00595	-0.886	-0.551	-0.0321	-1.1	0.272	-0.022	-0.0783
GCGCTAG	0.0192	0.0868	-0.0477	0.297	0.0272	-0.0954	0.0641	0.0385	0.12
TACATAG	-0.0366	-0.123	-0.816	-0.625	0.0402	-1.24	0.0542	0.066	-0.156
AGCTTAG	0.0624	0.13	-0.323	0.063	-0.0144	-0.742	0.136	0.0689	0.0574
ATCAAAG	0.052	0.0382	-0.791	-0.21	0.0285	-1.16	0.407	0.118	0.00679
AGCCGTG	-0.0191	-0.0316	-0.197	-0.0357	-0.059	-0.152	0.0946	-0.0909	-0.147
GCGAGCC	0.0853	0.0592	0.0565	0.447	-0.00086	0.115	-0.313	0.0931	0.0809
GGAGCGG	-0.0384	-0.0805	0.281	0.806	-0.0901	1.01	0.0909	-0.124	-0.0301
CAATGTG	0.117	0.0053	-0.661	0.0368	0.142	-0.825	0.177	0.162	-0.0809
TGAATGA	0.0434	-0.0332	0.0217	0.43	-0.0976	0.55	-0.03	-0.099	-0.0319

Sequence	uncleaved DNA left (log2) [1]	uncleaved DNA left (log2) [2]	uncleaved DNA left (log2) [3]	uncleaved DNA left (log2) [4]	uncleaved DNA left (log2) [5]	uncleaved DNA left (log2) [6]	uncleaved DNA left (log2) [7]	uncleaved DNA left (log2) [8]	uncleaved DNA left (log2) [9]
ATCGTCG	-0.0812	0.0611	-0.893	-0.101	0.0144	-1.1	0.0729	-0.00963	-0.128
CTAGTGG	0.0125	0.0741	0.176	0.864	0.161	0.314	0.193	0.00976	0.077
TATCCGC	-0.0823	-0.164	-0.443	-0.677	-0.08	-1.17	0.0358	-0.0425	-0.0803
ATGCAGG	0.168	0.131	0.194	0.271	0.128	-0.315	0.205	0.154	0.113
CAATTAT	-1.96	-0.241	-4	-3.38	0.0256	-3.2	-3.7	-0.294	-3.98
CCAGTAG	0.139	-0.0295	-0.595	-0.375	0.146	-0.961	0.329	0.0635	0.103
ACTATCA	-0.125	0.0212	0.0913	-0.369	0.0287	-0.000254	0.0568	-0.053	0.145
GTTGGTG	0.0392	-0.00402	-0.281	-0.176	0.122	-0.606	0.162	0.121	-0.0304
AGTGGTT	0.0825	0.135	0.312	0.81	-0.183	1.59	-2.56	-0.00938	0.0464
TAACTTC	-0.163	0.0308	-2.81	-3.02	-0.0244	-1.27	-0.201	0.0426	-0.986
TGCAAGG	0.0366	0.149	0.42	1.09	0.165	1.29	0.156	0.00977	0.0383
TTCCTCC	0.0532	0.0809	0.235	0.208	-0.0581	0.795	-0.0243	0.102	0.179
AGCAGAG	0.0512	-0.0171	-0.264	-0.107	0.0432	-0.538	0.0847	0.0396	0.0674
TTTGATA	-0.0504	-0.00527	-0.00203	-1.12	-0.0262	-0.113	-0.118	-0.000249	-0.0564
GTGCTCT	0.0448	-0.0144	0.307	0.666	-0.055	1.61	0.0217	-0.0618	-0.0168
AAGGGTG	0.157	0.073	-0.178	0.276	-0.0219	-0.17	0.21	-0.0091	0.0594
CTTGCTG	-0.0134	-0.0113	-0.38	-0.21	-0.025	-0.563	-0.000741	-0.143	-0.214
TCAAGTG	0.0168	-0.0425	-0.296	-0.408	-0.123	-0.789	0.103	-0.0442	0.00647
TGCTCCA	-0.0287	-0.0383	0.142	-0.254	0.0295	0.106	-0.166	-0.00984	0.0693
AGCACTT	0.0151	0.00147	0.202	0.629	-0.0045	1.61	-0.111	-0.065	0.00312
